Laboratory results reported in PubChem BioAssay AID504332 (National Center for Advancing Translational Sciences (NCATS), 2011).
Hit rate of the full screen: of about 350,000 compounds, about 31,000 (8.9%) were called active. This list was built around the results that the source calls inconclusive (neither active nor inactive); the mix of calls is not that of the screen. Calls come from the whole dose curve; as a rule, active = well fitted inhibition curve with a large enough effect; inconclusive = small, poorly fitted or top-dose-only effect; inactive = no such curve, though single readings can be large or run the other way. Potencies of inconclusive entries are doubtful fits and often do not repeat.

Each compound was assayed against Histone-lysine N-methyltransferase EHMT2 (Homo sapiens) (UniProt Q96KQ7) (assay: qHTS Assay for Inhibitors of Histone Lysine Methyltransferase G9a). Conditions: G9a H3K9 monomethylation, AlphaScreen, 2 h; activity, negative = inhibition: at 59 µM (top of the series) unless noted.
Procedure, shortened: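 Methyltransferase reactions run at room temperature for 2 h (20 nM enzyme, 500 nM biotin-H3K9 peptide, 20 uM SAM) after a 15 min compound preincubation; product detected by AlphaScreen beads and anti-H3K9me1 antibody.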
% is set by controls: 0 for no effect and ±100 for the full control effect; potency is the fitted concentration of half-maximal effect; tags give direction and shape of the fitted curve.
Note: nearly all actives have a fitted effect of over 75% in size.

Chain of UniProt Q96KQ7 (Q96KQ7 whole entry, looked up): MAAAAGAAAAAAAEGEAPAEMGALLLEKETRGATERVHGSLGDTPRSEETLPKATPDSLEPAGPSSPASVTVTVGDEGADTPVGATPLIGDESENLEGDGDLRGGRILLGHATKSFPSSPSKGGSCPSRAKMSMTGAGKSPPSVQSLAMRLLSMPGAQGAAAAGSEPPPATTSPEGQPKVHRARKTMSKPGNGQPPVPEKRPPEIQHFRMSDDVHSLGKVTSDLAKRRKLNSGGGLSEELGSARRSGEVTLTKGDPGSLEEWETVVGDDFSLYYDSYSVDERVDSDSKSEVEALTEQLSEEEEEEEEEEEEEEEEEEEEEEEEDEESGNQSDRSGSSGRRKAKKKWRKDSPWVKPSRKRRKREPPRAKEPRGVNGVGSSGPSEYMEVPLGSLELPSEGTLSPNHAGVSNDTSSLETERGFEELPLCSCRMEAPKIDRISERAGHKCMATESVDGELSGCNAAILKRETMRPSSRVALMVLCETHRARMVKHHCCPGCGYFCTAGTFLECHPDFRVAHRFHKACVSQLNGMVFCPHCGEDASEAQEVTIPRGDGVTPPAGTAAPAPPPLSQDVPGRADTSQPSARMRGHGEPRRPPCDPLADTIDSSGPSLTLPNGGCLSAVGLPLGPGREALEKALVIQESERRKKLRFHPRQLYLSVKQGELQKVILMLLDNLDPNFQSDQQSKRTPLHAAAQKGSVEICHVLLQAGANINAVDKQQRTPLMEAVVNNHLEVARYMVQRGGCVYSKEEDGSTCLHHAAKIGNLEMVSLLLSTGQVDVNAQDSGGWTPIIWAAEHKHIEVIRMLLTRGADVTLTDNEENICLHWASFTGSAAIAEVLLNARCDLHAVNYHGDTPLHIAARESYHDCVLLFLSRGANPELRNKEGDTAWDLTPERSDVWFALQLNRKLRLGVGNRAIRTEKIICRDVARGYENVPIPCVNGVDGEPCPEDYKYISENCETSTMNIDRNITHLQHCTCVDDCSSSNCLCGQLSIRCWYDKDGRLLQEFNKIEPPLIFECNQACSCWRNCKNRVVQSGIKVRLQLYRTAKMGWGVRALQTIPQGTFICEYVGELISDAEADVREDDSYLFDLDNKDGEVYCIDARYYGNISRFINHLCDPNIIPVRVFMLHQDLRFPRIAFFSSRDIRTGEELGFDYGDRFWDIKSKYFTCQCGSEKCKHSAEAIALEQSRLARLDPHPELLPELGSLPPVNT

SMILES | Potency | activity, negative = inhibition
Cc1cc(C)c[n+](C(C)C(=O)c2ccc(-c3ccccc3)cc2)c1 (stereo unspecified) | inactive | 
CC(C)Oc1ccc(/C(O)=C2/C(=O)C(=O)N(Cc3cccnc3)C2c2ccco2)cc1 (stereo unspecified) | inconclusive: 56.2 µM [inhibitor, partial curve, poor fit] | 
CCOc1ccccc1C(=S)NC1CCCCC1 | active: 35.5 µM | 
Cc1nn(S(=O)(=O)c2ccccc2)c(C)c1S(=O)(=O)N1CCOCC1 | active: 79.4 µM | 
CC(C)(NO)/C(=N\O)c1ccccc1 | active: 10 µM | 
O=C(CC(=O)Nc1nc(C23CC4CC(CC(C4)C2)C3)cs1)NCCO | inactive | 
COc1ccccc1N=c1oc2c(OC)cccc2cc1C(=O)NCc1ccco1 | inconclusive: 22.4 µM [inhibitor, partial curve, poor fit] | 
Cn1nnnc1SCc1cc(=O)[nH]c2ccccc12 | inactive | 
CNc1oc(-c2ccc(F)cc2)nc1S(=O)(=O)c1ccccc1 | active: 44.7 µM | 
O=C(O)C1CSC(c2ccccc2)N1C(=O)c1ccco1 (stereo unspecified) | inconclusive: 89.1 µM [inhibitor, single point] | 
Cc1cccc2sc(N(CCCN(C)C)C(=O)CN3C(=O)c4ccccc4C3=O)nc12 | inconclusive: 89.1 µM [inhibitor, partial curve] | 
CCC1CCc2sc(C(=O)NCC(c3ccc(OC)cc3)N3CCCC3)cc2C1 (stereo unspecified) | inconclusive: 50.1 µM [inhibitor, partial curve, poor fit] | 
COc1ccc(OC)c(C2C(C(=O)N3CCCCC3)=C(C)Nc3nc4ccccc4n32)c1 (stereo unspecified) | inactive | 
O=C(O)C/C=C(\NC(=O)OCc1ccccc1)C(=O)OCc1ccccc1 | active: 50.1 µM | 
O=C(N/N=C/c1sc2ccccc2c1O)c1cccc2ccccc12 | inactive | 
Cc1cc(C)nc(SCc2csc(N)n2)n1 | active: 50.1 µM | 
C/C(=N/NS(=O)(=O)c1cc(C)ccc1C)c1ccncc1 | active: 39.8 µM | 
COc1ccc(C(C(=O)NC2CCCC2)N(C(=O)c2ccoc2C)c2ccccc2)cc1 (stereo unspecified) | inconclusive: 1 µM [inhibitor, partial curve, poor fit] | 
CC(NC(=O)COc1cccnc1[N+](=O)[O-])c1ccc(Cl)cc1 (stereo unspecified) | inactive | 
Cc1ccc(C)c(NC(=S)c2ccccn2)c1 |  | inconclusive: -58.2% [inhibitor]
O=[N+]([O-])c1cccnc1S(=O)(=O)c1ccccc1 | inconclusive: 56.2 µM [inhibitor, partial curve, poor fit] | 
CCCC#Cc1ccc2c(c1)COc1c3ccccc3nn1-2 |  | inactive: 9.58% [at 2.33 µM]
COc1ccc(NC(=O)C(C)(C)Oc2ccc(Cl)cc2)cn1 |  | inactive: -7.9% [at 2.33 µM]
Cc1ccc(Nc2nc(=O)c3cccnc3s2)c(Br)c1 | active: 14.1 µM | 
CC(C)c1ccccc1NC(=S)NCC1(N(C)C)CCCCC1 | inconclusive: 3.16 µM [inhibitor, full curve] | 
O=[N+]([O-])c1ccc(COc2ccc(-c3[nH]ncc3-c3ccc(Cl)cc3)c(O)c2)cc1 | inconclusive: 25.1 µM [inhibitor, single point] | 

SMILES | Potency | activity, negative = inhibition
Cc1ccc(N2CC(C(=O)Nc3ccc(S(=O)(=O)Nc4nccs4)cc3)CC2=O)cc1 (stereo unspecified) | inconclusive: 35.5 µM [inhibitor, partial curve] | 
Cc1ccc(C)c(NC(=O)CN2C(=O)c3cccnc3Oc3ccc(C)cc32)c1 | inactive | 
CCOc1ccc(CN(C)CC(=O)Nc2ccc(N3CCOCC3)cc2)cc1OC | inconclusive: 50.1 µM [inhibitor, partial curve] | 
CC1CCCN(C(=O)C2CCN(CC3CC=CCC3)CC2)C1 (stereo unspecified) | inconclusive: 31.6 µM [inhibitor, partial curve, poor fit] | 
O=C(CSc1nnc(-c2ccco2)o1)NCC(=O)c1ccccc1 | inactive | 
O=C(N/C=C/c1ccccc1)c1ccccc1 |  | inactive: 8.61% [at 2.33 µM]
O=S(=O)(CCSc1ccccn1)c1nc2ccccc2s1 |  | inconclusive: -80.4% [inhibitor]
Cc1ccc(Nc2nc(CSc3nnc(-c4ccc(F)cc4)n3C)cs2)cc1 | inconclusive: 39.8 µM [inhibitor, single point] | 
COC(=O)C(NC(=O)CNS(=O)(=O)c1ccc(Br)cc1)c1ccccc1 (stereo unspecified) | inactive | 
COc1cc(NC(=O)c2nc3ccccc3nc2N2CCCCC2)cc(OC)c1OC | inconclusive: 17.8 µM [inhibitor, single point] | 
O=C(/C=C/c1ccco1)N(Cc1ccc(Cl)cc1)C1CCS(=O)(=O)C1 (stereo unspecified) | active: 44.7 µM | 
COc1cc(/C=C/c2nc(C#N)c(NCCc3ccccc3)o2)cc(OC)c1OC | inconclusive: 22.4 µM [inhibitor, single point] | 
COc1cc(C2NC(=O)NC(c3ccccc3)=C2C(C)=O)cc([N+](=O)[O-])c1O (stereo unspecified) |  | inactive: 1.8% [at 0.501 µM]
C=C[C@]1(C)C[C@@H](OC(=O)CSCCN(CC)CC)[C@]2(C)C(C)CC[C@]3(CCC(=O)[C@H]32)[C@@H](C)[C@@H]1O (stereo partly specified) | inactive | 
COc1cc(/C=N/Nc2ccc(Cl)c(C(=O)O)c2)ccc1OC(=O)c1ccccc1F | active: 39.8 µM | 
Cc1ccc(C)c(NC(=O)C(OC(=O)c2cc[n+]([O-])cc2)c2ccccc2)c1 (stereo unspecified) | inactive | 
O=C1CN2C(=Nc3ccc(Cl)cc3C2c2ccccc2)CN1 (stereo unspecified) | inconclusive: 25.1 µM [inhibitor, partial curve, poor fit] | 
COCC(=O)N(CCc1ccc(OC)c(OC)c1)Cc1cc2cc(C)ccc2nc1Cl | inactive | 
CCOc1ccccc1NC(=O)CCNS(=O)(=O)c1ccc(NC(C)=O)cc1 | inactive | 
COCCn1ccc2c(OCC(=O)Nc3ccccc3F)cccc2c1=O | inconclusive: 3.16 µM [inhibitor, single point] | 
CCOC(=O)[C@H](CCc1ccccc1)N[C@@H](C)C(=O)N1CCC[C@@H]1C(=O)O | active: 20 µM | 
Cc1cc(Cl)ccc1OCC(=O)n1cc(C(=O)c2cc(Cl)ccc2O)cn1 | active: 79.4 µM | 
CCc1ccc2c(COC(=O)c3n[nH]c4ccccc34)cc(=O)oc2c1 | active: 35.5 µM | 
O=C(CSc1ncn(-c2ccccc2)n1)Nc1nc2c(s1)CCCC2 |  | inactive: -26.1% [at 12.7 µM]
CC(=O)Cn1c(CN2CC(C)CC(C)C2)nc2c1c(=O)n(C)c(=O)n2C (stereo unspecified) | inactive | 
Cc1nc([N+](=O)[O-])c(SCC(N)=O)n1Cc1ccccc1 | inconclusive: 100 µM [inhibitor, partial curve, poor fit] | 

SMILES | Potency | activity, negative = inhibition
Cc1ccc(NC(=O)C(OC(=O)c2cc(C)oc2C)c2ccccc2)cc1 (stereo unspecified) | active: 79.4 µM | 
CCOC(=O)c1sc(=S)n(-c2ccc(Cl)cc2)c1C | inconclusive: 25.1 µM [inhibitor, single point] | 
COc1ccc(C2=Nn3c(nc4sc(C(=O)Nc5cccc(C)c5)c(C)c4c3=O)SC2)cc1 | inactive | 
COc1ccc(NC(=O)c2ccc3c(c2)c(C)c(C)n3Cc2ccc(F)cc2)c(OC)c1 | inconclusive: 28.2 µM [inhibitor, partial curve, poor fit] | 
O=[N+]([O-])c1cccc(Cl)c1NCCNc1ncc(C(F)(F)F)cc1Cl | inconclusive: 31.6 µM [inhibitor, single point] | 
Cc1ccc(Cl)c(OCC(=O)OCC(=O)NC2CCCc3ccccc32)c1 (stereo unspecified) | inactive | 
COc1ccc(NC(=O)Cn2c(=O)n(-c3ccc(CC(=O)NCC4CCCO4)cc3)c(=O)c3ccccc32)c(OC)c1 (stereo unspecified) | inactive | 
O=C(COc1ccc(S(=O)(=O)N2CCOCC2)cc1)N1CCOCC1 | inactive | 
O=S(=O)(NCC1CCCO1)c1cnc(Cl)c(Br)c1 (stereo unspecified) | inactive | 
O=C(CSc1nc(NS(=O)(=O)c2ccccc2)cc(=O)[nH]1)Nc1ccc(Cl)cc1 | active: 70.8 µM | 
Cc1cccc(-c2noc(-c3ccc(NCC4CCCO4)c([N+](=O)[O-])c3)n2)c1 (stereo unspecified) | inactive | 
O=C(Nc1ccc(S(=O)(=O)N2CCCCCC2)cc1)c1[nH]ncc1[N+](=O)[O-] | inactive | 
COc1cc(C2C3C(=O)N(Cc4ccccc4)C(=O)C3ON2c2ccccc2)cc(OC)c1O (stereo unspecified) | active: 50.1 µM | 
CN(C(=O)c1ccc2c(c1)N(Cc1ccccc1F)C(=O)c1ccccc1S2)C1CCCCC1 | inconclusive: 22.4 µM [inhibitor, partial curve, poor fit] | 
COC(=O)c1ccc(NC(=O)CSc2nnc(Cc3cccn3C)n2-c2ccc(F)cc2)cc1 | active: 44.7 µM | 
N#C/C(=C\c1ccc(Sc2nc3ccccc3[nH]2)o1)c1ccccc1 | inconclusive: 79.4 µM [inhibitor, single point] | 
CCC(C(=O)Oc1c(C(C)C)cccc1C(C)C)c1ccccc1 (stereo unspecified) |  | inactive: 7.79% [at 0.501 µM]
COCC(C)N1C(=O)Cc2c1nc(N)c1c(N)nc(N3CCN(c4ccccc4F)CC3)c(C#N)c21 (stereo unspecified) | inconclusive: 89.1 µM [inhibitor, partial curve, poor fit] | 
Cc1ccc(S(=O)(=O)Nc2cccc(C(=O)N3CCN(c4ccccc4O)CC3)c2)cc1F | active: 50.1 µM | 
O=C(C1CCN(c2nc3ccccc3[nH]2)CC1)N1CCN(c2ccccc2)CC1 | inactive | 
COc1ccc2oc(C(=O)Nc3nc(-c4ccccn4)cs3)c(C)c2c1 | active: 50.1 µM | 
CC(C)CCc1noc(CN2CCN(c3ccc(Cl)cn3)CC2)n1 | inactive | 
O=C(CCN1CCCCC1)N=Nc1c(O)[nH]c2ccccc12 | inconclusive: 39.8 µM [inhibitor, partial curve] | 
COc1cc2[nH]c(C(=O)NN)c(N)c2cc1OC | inconclusive: 70.8 µM [inhibitor, partial curve, poor fit] | 
